The results in this text go back to PMC4336329 (PLoS ONE, 2015).

Screen size: about 310,000 compounds; about 14,000 (4.5%) showed an effect of 50% or more. Effects have a minus sign here. Some of the results follow.
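Note: peak tail current of the secondary pulse compared with the same well before compound.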

The target in this assay is human ether-à-go-go-related gene (hERG) potassium channel (human, UniProt Q12809). Put plainly: primary screen, population patch clamp on CHO cells stably expressing hERG.
Chain of human ether-à-go-go-related gene (hERG) potassium channel (Q12809 whole entry, looked up): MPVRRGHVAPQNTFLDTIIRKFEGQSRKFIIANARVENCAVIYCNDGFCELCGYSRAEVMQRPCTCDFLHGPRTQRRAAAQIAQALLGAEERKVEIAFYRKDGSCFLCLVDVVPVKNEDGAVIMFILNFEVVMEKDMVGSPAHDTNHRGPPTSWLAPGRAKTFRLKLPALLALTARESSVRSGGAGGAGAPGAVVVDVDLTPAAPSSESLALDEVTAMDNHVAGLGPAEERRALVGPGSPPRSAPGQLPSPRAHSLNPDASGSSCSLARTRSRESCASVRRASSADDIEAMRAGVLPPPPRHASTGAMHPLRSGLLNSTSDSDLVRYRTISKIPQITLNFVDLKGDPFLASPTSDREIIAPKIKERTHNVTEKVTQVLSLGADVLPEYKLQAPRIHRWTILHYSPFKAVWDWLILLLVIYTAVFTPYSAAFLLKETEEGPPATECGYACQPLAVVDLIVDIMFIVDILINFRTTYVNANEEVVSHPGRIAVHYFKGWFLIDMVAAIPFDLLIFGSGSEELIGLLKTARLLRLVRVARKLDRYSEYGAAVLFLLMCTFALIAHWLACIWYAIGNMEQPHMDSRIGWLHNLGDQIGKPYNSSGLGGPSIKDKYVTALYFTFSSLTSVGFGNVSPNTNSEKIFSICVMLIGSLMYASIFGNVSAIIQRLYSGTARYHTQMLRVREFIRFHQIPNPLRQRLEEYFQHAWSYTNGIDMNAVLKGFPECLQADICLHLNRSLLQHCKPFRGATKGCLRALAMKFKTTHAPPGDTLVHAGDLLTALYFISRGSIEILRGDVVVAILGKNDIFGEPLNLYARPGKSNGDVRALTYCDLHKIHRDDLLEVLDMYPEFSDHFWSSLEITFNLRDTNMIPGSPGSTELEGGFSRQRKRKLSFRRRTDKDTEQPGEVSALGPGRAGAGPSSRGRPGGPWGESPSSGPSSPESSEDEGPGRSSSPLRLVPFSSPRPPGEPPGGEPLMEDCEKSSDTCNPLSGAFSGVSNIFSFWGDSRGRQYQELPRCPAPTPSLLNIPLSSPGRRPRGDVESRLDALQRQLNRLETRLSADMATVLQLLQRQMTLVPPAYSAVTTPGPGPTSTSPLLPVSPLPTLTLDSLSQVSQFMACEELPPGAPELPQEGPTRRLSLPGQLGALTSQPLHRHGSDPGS
With `COCCNC(=O)c1cc(-c2ccccc2)nn1CC1CC(c2cccc([N+](=O)[O-])c2)=NO1` (centres unmarked), the “hERG current change (%, negative = inhibition) at 10uM” value is -50.6%.
Then `Cc1ccc(S(=O)(=O)N2CCCCC2)cc1C(=O)N1CCN(CCO)CC1`, with 3.41%; and `COc1ccc(-n2nc(C(=O)NCC(=O)Nc3cc(OC)c(OC)c(OC)c3)c3ccccc3c2=O)cc1Cl`, with 10%; and `CC(C)c1cc(NC(=O)CSc2nnc(-c3ccccc3F)n2C)on1`, with -2.61%.
In the case of `CN=C(Nc1ccc(C(=O)OC)s1)c1ccc(Cl)cc1` it was -5.47%; in that of `Cc1cccn2cc(-c3ccc(S(=O)(=O)N4CCOCC4)cc3)nc12`, -13.8%; in that of `O=C(NC1=NCCS1)c1cccc(N2C(=O)c3ccccc3C2=O)c1`, 22.2%.
In the case of `CCN(CCn1cccn1)C(=O)CC1C(=O)NCCN1Cc1cccc(OC)c1OC` (centres unmarked) it was -2.93%; in that of `CCCCNC(=O)c1ccc(N2CCOCC2)c(NS(=O)(=O)c2ccc(OC)cc2)c1`, -40.4%.
On to `COc1ccc(/C(C)=N/NC(=S)Nc2cc(C)ccc2C)cc1`, for which the “hERG current change (%, negative = inhibition) at 10uM” value is reported as -41%.
As for `COc1cc(N)c(C(=O)c2nccc3cc(OC)c(OC)cc23)cc1OC`, the “hERG current change (%, negative = inhibition) at 10uM” value stood at 12.2%.
Then `CCOC(=O)C(O)(CC(=O)Nc1cc(F)ccc1C)C(F)(F)F` (centres unmarked), with 15.1%; and `O=[N+]([O-])c1ccc(S(=O)(=O)Nc2cccc(-c3ccc(N4CCOCC4)nn3)c2)cc1`, with -20.3%; and `Cc1ccccc1-c1cc(C(=O)NCc2ccc3c(c2)OCO3)n(CC2CC(c3cccnc3)=NO2)n1` (centres unmarked), with -20.8%.
In the case of `CCc1nn(CC(=O)N(C)C2CCCCC2)c(=O)c2cc3cc(C)ccc3n12` it was 11.7%; in that of `Cc1ccc(S(=O)(=O)N2CCC(C(=O)Nc3nnc(-c4ccco4)s3)CC2)cc1`, 18.9%.
Consider `COc1ccc2nc(N)sc2c1`, for which the “hERG current change (%, negative = inhibition) at 10uM” value amounted to 7.47%.
Then `O=C(NCCc1ccccn1)c1cccnc1Oc1ccc(Cl)cc1`, with -3.49%.
Take `CC1=C(C#N)S(=O)(=O)C(C#N)C(c2ccccc2)C1` (centres unmarked): the “hERG current change (%, negative = inhibition) at 10uM” value came to 6.92%.
Then `O=C1C2CC=CCC2C(=O)N1Cc1ccccc1Cl` (centres unmarked), with -2.93%; and `Cc1cc(C)nc(SCC(=O)N2CCOCC2)n1`, with 5.22%; and `COc1ccc(-c2[nH]ncc2CNCC(C)(C)N2CCOCC2)cc1F`, with 10.1%.
As to `CCN(CC)C(=O)CN1CCC(c2nc3cc(C)c(C)cc3[nH]2)CC1`, the “hERG current change (%, negative = inhibition) at 10uM” value was -15.7%.
Then `N#CCCn1cc(C(=O)NCc2ccccc2)c(-c2ccc3c(c2)OCCO3)n1`, with -19.9%; and `Cc1cccc(OCc2nnc(SCC(=O)Nc3nccs3)o2)c1`, with -7.46%.
Then `COc1ccc2cc3cc(C(=O)Nc4ccc5c(c4)OCO5)oc3nc2c1`, with -4.86%.
Then `COc1ccc(C2c3c(ccc4ccccc34)Oc3ncn4nc(Cc5ccc(OC)c(OC)c5)nc4c32)cc1` (centres unmarked), with -1.13%; and `N#CC1=C(N)Oc2n[nH]c(CSc3ccccc3)c2C12C(=O)Nc1ccccc12` (centres unmarked), with -8.42%; and `O=C(OCCOc1cccc(Cl)c1)C1CCN(S(=O)(=O)c2ccccc2)CC1`, with -2.75%.
With `O=C(O)CCc1nn2c3ccccc3n(CC(=O)c3ccccc3)c2nc1=O`, the “hERG current change (%, negative = inhibition) at 10uM” value worked out at 0.719%.
For `CC(=O)NC1C(=O)N=C(SCc2ccccc2)NC1=O` (centres unmarked), the “hERG current change (%, negative = inhibition) at 10uM” value is 5.93%.
In the case of `COc1ccc(C2C(C(C)=O)=C(O)C(=O)N2Cc2ccccc2)c(OC)c1` (centres unmarked) it was 15.2%.
Take `CCn1c(C)nc2cc(N)ccc21.Cl`: the “hERG current change (%, negative = inhibition) at 10uM” value is on record as 0.38%.
In the case of `CCOC(=O)C1C(=O)OC(C)(C)C1C(C)C(=O)c1ccccc1` (centres unmarked) it was 31.8%; in that of `O=C(COC(=O)c1cn(-c2ccccc2)nc1-c1ccccc1)Nc1ncc(Cl)cc1Cl`, -14%; in that of `CN(C)S(=O)(=O)c1ccc(S(=O)(=O)N(Cc2ccco2)Cc2ccccc2Cl)cc1`, -4.56%.
In the case of `S=c1[nH]nc(CCc2ccccc2)n1Cc1ccccc1` it was 10.6%; in that of `O=C1CC[C@@H](C(=O)O)N1`, 0.184%.
In the case of `C[C@H](c1ccccc1)n1nnc(COCc2ccccc2)c1C#CCOCc1ccccc1` it was -1.39%; in that of `O=C(OCC(=O)N1CCN(c2ccccc2)CC1)c1cccc([N+](=O)[O-])c1`, -28.2%; in that of `O=C(O)Cn1nc(-c2ccccc2)ccc1=O`, 9.99%.
Take `Cc1c(C)n(Cc2ccccc2)c2ncnc(NCCO)c12`: the “hERG current change (%, negative = inhibition) at 10uM” value is -9.23%.
For `O=C(CCNC(=O)c1ccccc1)NCCCc1ccccc1`, the “hERG current change (%, negative = inhibition) at 10uM” value was 6.54%.
In the case of `O=C(CN(C(=O)CNS(=O)(=O)c1ccccc1)C1CCCC1)NCC1CCCO1` (centres unmarked) it was 5.82%.
`CCCCC(NC(=O)c1ccc(C#N)cc1)C(=O)NCCC` (centres unmarked): the “hERG current change (%, negative = inhibition) at 10uM” value was -27.6%.
Then `COCCCNc1nc2ccccc2nc1NS(=O)(=O)c1ccccc1`, with 29.1%; and `CCn1cc(/C=C(\NC(=O)c2ccccc2)C(=O)NCCCN2CCOCC2)c2ccccc21`, with 3.43%.
As for `O=C1c2ccccc2C(O)N1c1ccccc1` (centres unmarked), the “hERG current change (%, negative = inhibition) at 10uM” value turned out to be 13.8%.
Turning to `CCOC(=O)c1cc(-c2cc3ccccc3o2)nc2c1c(=O)[nH]c(=O)n2CCOC`, the “hERG current change (%, negative = inhibition) at 10uM” value worked out at 9.66%.
For `CCN(CC)c1cc(C)c2cc(NC(=O)c3ccccc3F)ccc2n1`, the “hERG current change (%, negative = inhibition) at 10uM” value is recorded as -81.3%.
Consider `COc1ccc(C(=O)Nc2ccc(O)c3ccccc23)cc1`, for which the “hERG current change (%, negative = inhibition) at 10uM” value worked out at 13.9%.
Then `Cc1nonc1C1CCCN1C(=O)c1cc(COc2cccc(C(F)(F)F)c2)on1` (centres unmarked), with 5.53%; and `CCOC(=O)CSc1nnc(CNC(=O)c2cc(OCC)c(OCC)c(OCC)c2)n1C`, with -7.36%.
In the case of `Cc1nc(SCC(=O)NCc2ccco2)c2c(=O)n(C)c(=O)n(CC(C)C)c2n1` it was 12.1%.
In the case of `Cn1c(=O)c(-c2cc(=O)[nH][nH]2)c(O)c2ccccc21` it was 9.49%; in that of `O=C(CCN1C(=O)c2ccncc2C1=O)Nc1cc(F)ccc1F`, 8.13%; in that of `COc1ccc(N2CCN(CC(=O)Nc3cc(C)cc(C)c3)CC2)cc1`, -13.3%.
Take `CC(=O)Cn1c(CN2CCCCC2)nc2ccccc2c1=O`: the “hERG current change (%, negative = inhibition) at 10uM” value is reported as 4.1%.
In the case of `O=C(O)CCCCCNC(=O)c1ccc(C(=O)NCCCCCC(=O)O)cc1`, the “hERG current change (%, negative = inhibition) at 10uM” value was found to be 15.1%.
Then `CCCCNC(=O)C(Cc1ccccc1)NS(=O)(=O)c1ccc2c(c1)c(=O)n(C)c(=O)n2C` (centres unmarked), with -13.7%; and `Cn1nnnc1SCC(=O)Nc1ccc(Oc2ccccc2)cc1`, with -24.1%.
In the case of `COCC(=O)Nc1nc(-c2ccc(C)cc2)c(C)s1` it was -9.29%; in that of `Nc1nc(SCc2ccccc2)[nH]c(=O)c1-c1ccccc1`, -2.18%.
In the case of `COc1ccccc1N1C(=O)CC(Sc2nc(C)cc(C)n2)C1=O` (centres unmarked) it was -4.62%.
As for `COc1ccc(C(=O)N2CCNC(=O)C2CC(=O)Nc2cccc(Cl)c2Cl)cc1` (centres unmarked), the “hERG current change (%, negative = inhibition) at 10uM” value was -34.2%.
In the case of `COCCCn1c(Cc2csc(Nc3ccc(F)cc3)n2)nnc1SCC(N)=O` it was -5.91%.
In the case of `O=C(CN1C(=O)NC2(CCCC2)C1=O)Nc1ccccc1N1CCCC1` it was 19.1%.
`CC(=O)NC12CC3CC(C1)CC(C(=O)N1CCN(S(=O)(=O)c4cccc(F)c4)CC1)(C3)C2`: the “hERG current change (%, negative = inhibition) at 10uM” value is -26.3%.
As to `COc1cccc(C2C(C(=O)c3ccco3)=C(O)C(=O)N2CCN(C)C)c1OC` (centres unmarked), the “hERG current change (%, negative = inhibition) at 10uM” value was determined as 8.87%.
`Cc1sc2ncnc(N3CCC(C(=O)NNC(=O)c4ccccc4Cl)CC3)c2c1C`: the “hERG current change (%, negative = inhibition) at 10uM” value is -22.2%.
Then `CCCOc1ccc(OCCn2nc(C(=O)O)c3ccccc3c2=O)cc1`, with 2.96%; and `COc1ccc(S(=O)(=O)N(C(C)=O)c2ccc(OC(C)=O)c3ccccc23)cc1[N+](=O)[O-]`, with 4%; and `COc1ccc(-c2cc3ccccc3n2CC(O)Cn2nc(C)cc2C)cc1` (centres unmarked), with 4.62%.
On to `Cc1noc(C)c1COc1ccc(C(=O)N(C)CCOc2ccccc2)cc1`, for which the “hERG current change (%, negative = inhibition) at 10uM” value is on record as -26.2%.
Then `O=C(COc1ccc([N+](=O)[O-])cc1)Nc1ccccc1N1CCCC1`, with -21.8%; and `O=[N+]([O-])c1cccc(-c2ccc(C(=S)N3CCOCC3)o2)c1`, with -9.78%.
In the case of `COC(=O)c1cc(S(=O)(=O)C(C)C)c(S(C)=O)s1` (centres unmarked) it was 14.9%.
For the compound `O=C(c1cc([N+](=O)[O-])ccc1N1CCCC1)N1CCCC1`, the “hERG current change (%, negative = inhibition) at 10uM” value is on record as -0.904%.
Then `Cc1ccc(NC(=O)CSc2ccc3c(c2)OCCO3)nc1`, with 3.51%; and `COc1ccc(/C=N/NC(=O)c2ccc(NC(C)=O)cc2)cc1COc1ccc(F)cc1F`, with 14.8%.
Then `COc1ccc(C(=O)COc2ccccc2C(=O)Nc2ccccc2)cc1`, with 18.6%.
Turning to `O=C(NCCOc1ccc(F)cc1)C1CCC(=O)N(CCc2ccccn2)C1` (centres unmarked), the “hERG current change (%, negative = inhibition) at 10uM” value is listed as -8.19%.
In the case of `O=C(Nc1ccccc1N1CCCC1)C1CCN(S(=O)(=O)c2ccccc2C(F)(F)F)CC1` it was -14.9%; in that of `O=C(N/N=C/c1cccc([N+](=O)[O-])c1)c1ccc(CN2CCOCC2)cc1`, -19%.
For `COc1ccc(C(=O)N[C@H](C(=O)Nc2sccc2C(N)=O)C(C)C)cc1`, the “hERG current change (%, negative = inhibition) at 10uM” value is 12.8%.
Then `CCC(c1nnc(SCC(=O)Nc2nnc(-c3ccccc3)o2)n1Cc1ccccc1)N(C)C` (centres unmarked), with 12.9%.
